The data set deals with the molecule itself. Kind of data set: native gel or EMSA; NativePAGE 3 to 12% (w/v) acrylamide bis-tris gels, Western blot; ex vivo polymers (ZZ) as isolated from liver and M polymers induced by heating at 55°C for 48 hours. On the technique in general: In EMSA bound probe runs differently from free probe, usually more slowly.

B1: Z α1-antitrypsin (E342K) polymers isolated from explant liver tissue of Z homozygotes (natural protein)
chain: not shown
notes: α1-antitrypsin, human, severe Z (E342K) allele; Linear unbranched polymer chains of heterogeneous length; Glycosylated, sensitive to PNGase F and EndoH (not matured in the trans-Golgi network); also called ZZ; ex vivo polymers
For B1, the binding result is “binds”.
